The record followed here is PubChem BioAssay AID1508623 (National Center for Advancing Translational Sciences (NCATS), 2021).

Among all 48,000 compounds or so, about 450 (0.94%) were called active. Another 19% or so got no clear call; they are omitted. The call rests on the fitted dose curve; in most records, active means well fitted inhibition curve with a large enough effect; inconclusive means small, poorly fitted or top-dose-only effect; inactive means no such curve, though single readings can be large or run the other way. The list shows a part of the results.

This assay can be described thus: Primary qHTS for Identification of Small Molecule Inhibitors of Huntingtin Promoter Activity. Further: nearly all actives have a fitted effect of over 50% in size. The settings on record: HEK293 HTT promoter firefly luciferase reporter (activity 0% = vehicle and -100% = no light), 24 h; series mostly up to 57.5 µM; activity change, negative = inhibition: at the top concentration. A digest of the protocol:
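Quantitative HTS used concentration series of up to 57.5 uM final on HEK293 luciferase reporter cells, 24 h at 37 degrees C. Readout was Dual-Glo firefly luminescence.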
A general note: qHTS replaces the single test concentration by a dilution series.
Take `Cc1ccc(C)c(NC(=O)CSc2nnc(C)n3c2cc2occc23)c1`: the “activity change, negative = inhibition” value was inactive: 0.734%. The value for `CCC1CCCCN1CCCNC(=O)c1ccc2c(c1)sc1nc(-c3ccc(F)cc3)cn12` (stereo unspecified) was inactive: 2.53%; that for `O=S(=O)(Nc1cccc(-c2ccc(N3CCOCC3)nn2)c1)c1cc(C(F)(F)F)ccc1Cl` was inactive: 5.7%. The value for `COC(=O)c1ccc(Cl)cc1NC(=O)Nc1nnc(N(C)Cc2ccccc2)s1` was inactive: -12.7%. Then `CCC(C(=O)OC)n1nnc2sc(-c3ccccc3)cc2c1=O` (stereo unspecified), with inactive: 8.75%.

On to `CCOC(=O)c1ccc(CN(Cc2ccc(Br)cc2)S(=O)(=O)c2cccc(C(F)(F)F)c2)cc1`, for which the “activity change, negative = inhibition” value was inactive: 2.35%. On to `COc1ccc2c(c1)c(=O)c(C(=O)c1ccc(C)cc1)cn2Cc1ccccc1F`, for which the “activity change, negative = inhibition” value is inactive: -21.6%.

Consider `Cc1ccc(N2C(=O)CS(=O)(=O)C23C(=O)N(Cc2ccccc2F)c2ccccc23)cc1Cl` (stereo unspecified), for which the “activity change, negative = inhibition” value is inactive: -33.5%. With `O=C(COc1ccccc1Cl)Nc1ccccc1OCc1cc(=O)n2ccccc2n1`, the “activity change, negative = inhibition” value was inactive: 3.17%.

As to `O=C(CN1C(=O)C2CCCCN2c2ccc(C(=O)N3CCCC3)cc21)NCc1ccccc1F` (stereo unspecified), the “activity change, negative = inhibition” value was inactive: -5.36%.

As for `CCCCN(CC)CCNc1ncnc2onc(-c3ccc(Cl)cc3)c12`, the “activity change, negative = inhibition” value was inactive: -28.5%.

On to `CC(C)COc1ccc(Nc2ncnc3ccc(Br)cc23)cc1`, for which the “activity change, negative = inhibition” value was inactive: -3.78%. The value for `COC(=O)c1sccc1S(=O)(=O)N(CC(=O)NCc1ccc(F)cc1)c1ccc(C)c(C)c1` was inactive: -2.57%. Then `Cc1cccc(NC(=O)NC2COc3ccccc3C2)c1C` (stereo unspecified), with inactive: 4.19%; and `CNS(=O)(=O)c1cn(CC(=O)Nc2cccc(C(F)(F)F)c2)cc1S(=O)(=O)NC`, with inactive: 3.99%; and `Cc1ccc(CN(Cc2ccco2)C(=O)c2cccc(C)c2)cc1`, with inactive: -27.4%. The value for `CNS(=O)(=O)c1cn(CC(=O)N2CCN(c3ccc(C)cc3C)CC2)cc1S(=O)(=O)NC` was inactive: -1.54%. On to `CCCCS(=N)(=O)CCC(N)C(=O)O` (stereo unspecified), for which the “activity change, negative = inhibition” value was inactive: -9.79%.

Consider `CCCNc1ccc(-c2nc(-c3ccco3)no2)cc1[N+](=O)[O-]`, for which the “activity change, negative = inhibition” value was inactive: 51.1%. Then `Cc1cc(S(=O)(=O)n2ccnc2C(C)C)cc([N+](=O)[O-])c1C`, with inactive: -15.9%. Consider `COc1ccc(C2Sc3ccccc3N(CCN(C)C)C(=O)C2OC(C)=O)cc1` (stereo unspecified), for which the “activity change, negative = inhibition” value was inactive: -5.89%.

On to `COc1ccc(CNc2nc(-c3ccco3)nn2C(=O)CC(C)C)cc1`, for which the “activity change, negative = inhibition” value is inactive: 47.8%. The value for `CCOC(=O)c1nc(Nc2ccc(Cl)cc2)c2c(C)noc2n1` was inactive: -24.7%; that for `O=C(Nc1cc(C(F)(F)F)ccc1Cl)c1ccc2c(c1)CCN2S(=O)(=O)c1ccccc1` was inactive: -20.9%; that for `CCC(C)(C)C(=O)O[C@H]1C[C@@H](C)C=C2C=C[C@H](C)[C@H](CC[C@@H]3C[C@@H](O)CC(=O)O3)[C@H]21` was “inactive”. Then `Cc1cc(C)c(Cn2c(=O)n(-c3ccccc3Cl)c(=O)c3c(C)c(C(=O)N(C)C)sc32)c(C)c1`, with inactive: 7%; and `Cc1cn2c(=O)cc(COc3cccc(NC(=O)c4ccccc4Cl)c3)nc2s1`, with inactive: 5.74%. The value for `COc1cccc(N2CC(NC(=O)C3CCCCC3)CC2=O)c1` (stereo unspecified) was inactive: -16.9%; that for `COc1ccc(C(=O)Nc2nnc(S(=O)(=O)N3CCN(c4ccc(C)cc4)CC3)s2)cc1` was inactive: -5.84%; that for `CC(Oc1ccccc1)C(=O)Nc1nnc(S(=O)(=O)N2CCCCCC2)s1` (stereo unspecified) was inactive: -20.9%. `Cc1ccccc1C(=O)Nc1cccc(-c2cn3cccnc3n2)c1`: the “activity change, negative = inhibition” value is inactive: -9.35%. Then `Cc1ccc(Oc2nc3c(c(=O)n(Cc4ccccc4Cl)c(=O)n3C)n2C)cc1C`, with inactive: 0.182%; and `COc1ccc(-c2cc3nc(C)c(CCC(=O)Nc4ccc(F)cc4F)c(C)n3n2)c(OC)c1`, with inactive: -25.7%; and `CCOc1ccc(C(=O)Nc2ccc(C(=O)OCc3cc(=O)n4nc(CC)sc4n3)cc2)cc1`, with inactive: -18.7%. Then `COC(=O)c1ccc(NC(=O)N2CCC(CN3CCc4ccccc4C3)CC2)cc1`, with inactive: -30.7%. The value for `COc1ccc(NC(=O)CSc2ccc(-c3cccs3)nn2)cc1` was inactive: 9.5%.

On to `COc1ccc(/C=C/C(=O)N2CCC(c3nc4ccccc4o3)CC2)cc1`, for which the “activity change, negative = inhibition” value was inactive: -13.3%. The value for `CCOc1ccc(N(CC)S(=O)(=O)N2CCCC(C(=O)Nc3ccc(NC(C)=O)cc3)C2)cc1` (stereo unspecified) was inactive: -9.48%; that for `CCS(=O)(=O)c1nc(S(=O)(=O)c2ccc(C)cc2)c(NCc2ccc(Cl)cc2)s1` was inactive: -30.5%.

`CCOC(=O)c1ccc(NS(=O)(=O)c2cn(C)c(C)n2)cc1`: the “activity change, negative = inhibition” value was inactive: -13.2%.

As to `CN(C)C(=O)COC(=O)Cc1ccc(OC(=O)c2ccc(N=C(N)N)cc2)cc1`, the “activity change, negative = inhibition” value was inactive: 3.82%. For the compound `COc1cccc(C(=O)Nc2cc(-c3ccccc3)nn2-c2ccccc2)c1`, the “activity change, negative = inhibition” value is inactive: -20%. Then `O=C(COc1ccc2oc3c(c2c1)CCCC3)Nc1ccc(Cl)cc1`, with inactive: -22.2%. On to `CC(=O)Oc1ccc(C(c2ccc(OC(C)=O)cc2)c2ccccn2)cc1`, for which the “activity change, negative = inhibition” value is inactive: 3%. The value for `CCOc1ccc(NC(=O)Cn2cc(C(=O)c3ccc(OCC)cc3)c(=O)c3cc4c(cc32)OCCO4)cc1` was inactive: 6.09%. Then `Cc1ccc(CCNC(=O)c2cc3cc4cc(C)ccc4nc3s2)cc1`, with inactive: 33.4%; and `COc1ccc(NC(=O)N(C(C)C)C2CCN(C(C)=O)CC2)c(OC)c1`, with inactive: -21.1%; and `COc1cccc(NC(=O)CN2C(=O)COc3ccc(S(=O)(=O)N4CCCCCC4)cc32)c1`, with inactive: -18.1%. The value for `CCc1ccc(NC(=O)CC2C(=O)N(c3ccc(C)cc3)C(=O)N2CCc2ccncc2)cc1` (stereo unspecified) was inactive: -11.1%. `Nc1c(C(=O)NCc2ccc3c(c2)OCO3)nnn1CC(=O)Nc1ccc(Br)cc1`: the “activity change, negative = inhibition” value was inactive: -9.73%. For the compound `Cc1cccc(C)c1OCC(=O)N1CCC(c2nc3ccccc3o2)CC1`, the “activity change, negative = inhibition” value is inactive: -11.1%.

`Cc1cc(SCC(=O)Nc2ccc(Cl)cc2)nc2ccccc12`: the “activity change, negative = inhibition” value is inactive: -5.57%.

For the compound `Cc1cccc(NC(=O)CSc2cn(CC(=O)N3CCCC3)c3ccccc23)c1C`, the “activity change, negative = inhibition” value is inactive: -17.1%. As to `CCc1ccc(-c2cc(C)no2)cc1S(=O)(=O)Nc1ccc(Cl)cn1`, the “activity change, negative = inhibition” value was inactive: -22.3%. Then `COc1cc(OC)c(NC(=O)c2cc3c(s2)-c2ccc(Cl)cc2SC3)cc1Cl`, with inactive: -22.1%; and `Cc1cccc(N2CCN(C(=O)C3CCN(Cc4nc(-c5ccc(Cl)cc5)oc4C)CC3)CC2)c1C`, with inactive: -8.05%. The value for `Cc1cc(NC(=O)C2CCC(CNS(=O)(=O)c3ccc(Br)s3)CC2)ccc1Br` (stereo unspecified) was inactive: -2.79%; that for `CCc1nn2c(-c3ccco3)ccnc2c1-c1ccccc1` was inactive: 8.89%; that for `N=c1nc(N2CCCCC2)cc(N)n1O` was “inactive”. The value for `CCOC(=O)c1cc(S(=O)(=O)Nc2ccc(OC(F)(F)F)cc2)[nH]n1` was inactive: -7.05%; that for `COc1ccc(NC(=O)CSc2nc(-c3ccc(OC)cc3)cc(=O)[nH]2)cc1` was inactive: 9.16%; that for `O=C(NCc1ccccc1Cl)c1cnc(N2CCCCC2)c2ccccc12` was inactive: -12.2%.

Regarding `COc1ccc(-c2cc3ccc(O)c(CN4CCN(CCO)CC4)c3oc2=O)cc1OC`, the “activity change, negative = inhibition” value is inactive: -7.87%. Then `Cc1cccn2c(Nc3ccc4c(c3)OCCO4)c(-c3ccc(Br)o3)nc12`, with inactive: 18.2%; and `COc1cc(-c2nc3n(n2)C(c2ccc(F)cc2)C(C(N)=O)=C(C)N3)cc(OC)c1OC` (stereo unspecified), with inactive: 2.27%; and `COc1ccc(OC)c(CNC(=O)c2cc(-c3ccc(Cl)s3)nc3ccccc23)c1`, with inactive: -12.8%. Then `Cc1ccc(-n2nc(C(=O)NCCc3cccc(C)c3)c3c4ccccc4n(C)c3c2=O)cc1`, with inactive: -5.2%; and `COc1ccccc1NC(=O)c1oc2ccccc2c1NC(=O)c1ccc(S(=O)(=O)N(C)C)cc1`, with inactive: 1.06%; and `Cc1ccc(CNC(=O)c2cc(C3CC3)nc3c2c(C)nn3-c2cccc(Cl)c2C)cc1`, with inactive: 2.84%. The value for `CCCN(CCC)C(=O)c1c[nH]c2ccc(S(=O)(=O)Nc3cc(C)cc(C)c3)cc2c1=O` was inactive: -3.79%. For the compound `Cc1c(Cl)cccc1NC(=O)c1cc(-c2cccs2)on1`, the activity change, negative = inhibition was inactive: -15.8% [at 11.5 µM]. Regarding `CCOC(=O)c1c(C)[nH]c(C)c1S(=O)(=O)N(C)CC(=O)Nc1cccc(Cl)c1C`, the “activity change, negative = inhibition” value was inactive: -19.7%. Then `COc1ccc(CN2CCCN(CC(=O)Nc3ccc(Br)cc3F)S2(=O)=O)cc1`, with inactive: 1.72%. The value for `Cc1c(C(=O)N2CCC(C)CC2)c(S(=O)(=O)Nc2cccc(C#N)c2)c(C)n1C` was inactive: -21.6%; that for `CCOc1ccc(NC(=O)CC2Nc3cccc4cccc(c34)NC2=O)cc1` (stereo unspecified) was inactive: -7.08%.

Take `COc1ccc(C(=O)N2CCCCC2CCN2CCOCC2)cc1` (stereo unspecified): the “activity change, negative = inhibition” value is inactive: -7.37%. The value for `CC1=C(c2ccc(C)c(C)c2)S(=O)(=O)N=C1N1CCN(c2cccc(C)c2)C(C)C1` (stereo unspecified) was inactive: -22.5%; that for `CCOC(=O)c1ccc(NC(=O)C2=C(C)C(=O)OC23CCCCCC3)cc1` was inactive: -14.1%; that for `CC(C)Sc1ncc(Cl)c(C(=O)Nc2nc3ccc(S(C)(=O)=O)cc3s2)n1` was inactive: -1.91%. Then `O=C(c1ccccc1Cl)N1CCCC(c2nc3c(nnn3Cc3ccc(F)cc3F)c(=O)[nH]2)C1` (stereo unspecified), with inactive: -27.9%; and `COc1ccc(NC(=O)Cn2c(=O)n(Cc3nc(C)no3)c(=O)c3cc4c(cc32)OCO4)cc1`, with inactive: -11.2%; and `COc1ccc(NC(=O)c2cc3c(=O)n(Cc4cccs4)ccc3nc2C)c(OC)c1`, with inactive: -6.32%. The value for `NC1[C@H]2CN(c3nc4c(cc3F)c(=O)c(C(=O)O)cn4-c3ccc(F)cc3F)C[C@@H]12` (stereo partly specified) was inactive: 68.8%; that for `Cc1ccc(-c2nc3cc(Cl)ccc3o2)cc1NC(=O)c1cc2ccccc2o1` was inactive: 14%; that for `Cc1c(C(=O)N(C)C)sc2c1c(=O)n(-c1ccccc1C(F)(F)F)c(=O)n2Cc1ccccc1C#N` was inactive: -0.166%. `CC(C)Cc1nn2c(=O)cc(COC(=O)c3cccc(NC(=O)c4cccs4)c3)nc2s1`: the “activity change, negative = inhibition” value is inactive: -11.4%. Then `COc1ccc(-c2nsc(NC(=O)COc3ccccc3OC)n2)cc1`, with inactive: -6.06%; and `COc1ccccc1CNC(=O)CCCn1c(=O)c2ccccc2n(CC(=O)Nc2ccc(C)cc2Cl)c1=O`, with inactive: -7.18%; and `Cn1c(=O)n(Cc2ccccc2Cl)c(=O)c2c1nc1n2CCN1c1ccccc1`, with inactive: -0.361%. Then `COc1cccc(CNC(=O)CSc2cc(C)[nH]c(=O)n2)c1`, with inactive: -1.56%. The value for `Cc1c(Cl)cccc1NC(=O)CSc1nc(=O)n(Cc2ccncc2)c2c1CCC2` was inactive: -5.61%; that for `Cc1ccc(C(=O)COC(=O)CCCC(=O)Nc2cc(C(F)(F)F)ccc2Cl)cc1C` was inactive: -10.2%. Regarding `COc1ccc(C(=O)NCc2ccc3c(c2)CCN3C(C)=O)cc1OC`, the “activity change, negative = inhibition” value is inactive: -23.6%. Take `CCn1ccc2cc(S(=O)(=O)N3CCCN(C(=O)Nc4ccc(C)cc4Cl)CC3)ccc21`: the “activity change, negative = inhibition” value was inactive: -23%. Then `Cc1cc(Nc2ccccc2F)n2nc(Cc3ccc(Cl)cc3)nc2n1`, with inactive: -18%; and `COc1cc2c(cc1OC)n(CC(=O)Nc1ccc(C)cc1C)c(=O)n1nc(-c3ccccc3)nc21`, with inactive: -12%.
